Laboratory results taken from ChEMBL document CHEMBL4888484, “Replenishing the malaria drug discovery pipeline: Screening and hit evaluation of the MMV Hit Generation Library 1 (HGL1) against asexual blood stage Plasmodium falciparum ,using a nano luciferase reporter read-out” (2022).
Out of some 150,000 compounds screened, about 540 (0.36%) showed an effect of 50% or more. This is one part of the list.

Test system: Plasmodium falciparum
Assay: Primary screen in NF54 nanoGlo assay, in single point, at 2uM, 72h; a lower Z score goes with more inhibition
Type: functional, Erythrocyte
Settings: timepoint 72 hour

SMILES	% Inhibition [%]	Z score
Cn1cc(CN2CCN3C(=O)N(C4CCOCC4)C[C@H]3C2)cn1	16	-1.86
NC(=O)CN(CCC1CCCCC1)C(=O)c1ccncc1	3	-0.55
O=C(Nc1ccncc1)N[C@H]1CC(=O)N(c2ccccc2)C1	10	-1.25
COc1ccc(CNC(=O)N2C3CCC2CC(n2cccn2)C3)cc1 (stereo not drawn)	-21	2.74
CC(C)[C@@H]1CN(C(=O)c2ccc(O)cn2)CCCN1CC1CC1	-8	1.18
Cc1cc(C)n([C@@H](C)CNC(=O)CCc2scnc2C)n1	-3	0.65
O=C(O)c1cc(-c2cccc3ccccc23)nc2ccccc12	-2	0.29
Cc1cc(CN(C)C(=O)c2c(C)noc2C(C)C)no1	2	-0.33
Cc1nnc(NC(=O)c2cccc(C(=O)O)c2-c2ccccc2)s1	-3	0.35
Cc1ccc(S(=O)(=O)N2CCN(S(=O)(=O)c3c(C)cc(C)cc3C)[C@H]2C(C)C)cc1	3	-0.42
Cc1ccc(CNC2CCN(C)CC2)c(OCc2ccco2)c1	34	-4.61
Cc1cc(C(=O)Nc2ccccc2Cl)cc2c1N(C)S(=O)(=O)c1ccccc1-2	10	-1.27
O=C1NS(=O)(=O)c2cccnc2N1c1ccc(F)cc1	-5	0.52
Cc1ccc(C(=O)C(=O)NCc2cccc(N(C)C)c2)cc1	-6	0.74
Cc1noc(C)c1CN(C)C(=O)c1ccc(-c2cncn2C)cc1	-2	0.42
COCCn1cc(NC(=O)N(CCC(F)(F)F)C2CCCC2)cn1	-3	0.43
COc1cn(CC(=O)Nc2cc(C)on2)c(CN2CCOCC2)cc1=O	-3	0.57
OCc1cc(-c2ccc3ccccc3c2)on1	2	-0.22
CCN(CC)CCN1CN(Cc2ccccc2)c2nc3ccccc3n2C1	-10	1.61
C#CCOc1cccc(Oc2ncnc3onc(C)c23)c1	-12	1.4
Cc1ccc(NC(=O)CN(C)S(=O)(=O)c2ccc3c(c2)C[C@H](C)N3C(=O)C2CCC2)c(Cl)c1	-5	0.87

SMILES	% Inhibition [%]	Z score
C=CCn1cc(CN2CCc3[nH]cnc3[C@@H]2Cc2ccccc2)cn1	-5	0.8
C[C@]1(O)CCN(S(=O)(=O)C2CCC2)C1	-3	0.27
c1csc(-c2nc(-c3ccc4nncn4c3)no2)c1	-16	2.76
O=C(NCCF)NC1CCOC(c2ccc(F)cc2)C1 (stereo not drawn)	9	-1.47
O=C(Cn1cc(-c2ccccc2)sc1=O)NCCC1=CCCCC1	-8	1.2
O=C(CCCc1ccccn1)Nc1cccc(-c2nnco2)c1	-3	0.4
Cc1ccn(CC(=O)N2CCC([C@]3(C)NC(=O)N(Cc4ccc(F)cc4)C3=O)CC2)n1	0	0.04
C=CC[C@]1(CO)CCCN(C(=O)c2cccc(N3CCCC3=O)c2)C1	-4	0.88
O=C(c1ccncc1)N1CC2CC1CO2 (stereo not drawn)	-7	1.43
Cc1cc(S(=O)(=O)NC2CC3CCC(C2)N3)sc1C (stereo not drawn)	-6	0.75
CCCCOc1ccc(C(=O)Nc2ccc(-n3nc(OCCOCC)nc3-c3cccc(C(F)(F)F)c3)cc2)cc1	-20	1.93
CC(C)(C)n1cc(C=Cc2cc(O)nc(C3CC3)n2)nn1	-14	2.62
CC(C)(C(=O)O)c1cnc(NC2CCCCCCC2)nc1N1CCOCC1	-8	1.41
CN(Cc1cnn(Cc2ccccc2)c1)S(=O)(=O)c1ccc2c(c1)CCCC2	1	-0.07
COCCN1CC(=O)N[C@H]2CN(CCCn3ccnc3C)C[C@@H]2OCc2cccc(c2)Oc2cc(ccc2OC)CCC1=O	21	-2.92
C[C@]1(n2cc(CNc3cc(F)ccc3F)cn2)CCS(=O)(=O)C1	-4	0.48
CCOc1ccc(-c2c[nH]c(-c3ccccc3O)n2)cc1	0	0.05
O=C(c1ccccc1F)N(Cc1nccn1Cc1ccc(Cl)cc1Cl)c1ccccc1	-9	1.03
COc1cc(NC(=O)N2CC(C)OC(c3ccc(F)cc3)C2)ncn1 (stereo not drawn)	-10	1.39
CN(C(=O)C1CCN(c2nccs2)CC1)c1ccccc1	-12	1.84
Cc1cc(C)cc(NC(=O)Cn2c(=O)ncc3c2cnn3[C@H]2CCS(=O)(=O)C2)c1	-6	0.65

SMILES	% Inhibition [%]	Z score
Cc1ccc(-n2c3c(c(=O)[nH]c2=O)CN(Cc2ccccn2)CN3)cc1C	-1	0.13
CCOCc1nc2c(c(N[C@@H]3COC4(CCCC4)C3)n1)CCNCC2	-8	1.24
CNC(=NC(C)C1CCCO1)NCC(c1ccco1)N1CCCC1 (stereo not drawn)	-6	0.74
CCCc1cc(C(=O)N(CCc2ccccc2)Cc2ccco2)n(C)n1	1	-0.18
C[C@H]1CN(c2ccc(F)cn2)CCN1c1ccncc1	-18	2.09
CCN1CCN(CCCN2C(=O)c3ccccc3C2=O)CC1	-5	0.58
CCc1nc(CN(C)Cc2cc(C)on2)n[nH]1	-8	1.66
C[C@H]1CCN(C(=O)CN2CCC(C(F)(F)F)CC2)[C@@H](C)C1	-1	0.16
Cc1cccc(OCC(=O)Nc2ccc(NC(=O)COc3cccc(C)c3)c(Cl)c2)c1	-3	0.4
COc1cc(CN2CCC3(CCC(=O)N3OCc3ccccc3F)CC2)ccc1OCc1ccccc1	-2	0.28
CCc1noc(-c2cnn3c2CCCC3)n1	-12	1.18
CC(=O)N1CCc2cc(S(=O)(=O)[C@@H](C)CC(=O)N3CCN(c4ccccc4F)CC3)ccc21	-11	1.71
CC(C)(C)c1nc(N2CCC[C@H](NS(C)(=O)=O)C2)no1	1	-0.05
c1ccc(CO[C@H]2COCCN(C3CCOCC3)C2)cc1	-7	1.01
Cc1cnc(N(C)Cc2nccs2)nc1N(C)Cc1nccs1	-7	0.94
CCc1cc(C(=O)NCc2nc(CN3CCCCC3)no2)sc1C	-6	0.82
COc1ccc(-c2nc(C3(S(C)(=O)=O)CCCC3)no2)cn1	-9	1.44
Cc1ccccc1C(=O)N1[C@H](C(=O)NCc2ccccn2)COC12CCN(C(=O)C(C)(C)C)CC2	5	-0.45
O=C(OCCNc1cccnn1)c1cscn1	1	-0.11
CC[C@H](C)[C@H](N)C(=O)NC[C@@H]1CCO[C@H]1c1ccc(F)cc1	5	-0.56
CN1CCC[C@H](CCc2ncnn2-c2cccc(C(F)(F)F)c2)C1	-11	2.11

SMILES	% Inhibition [%]	Z score
Cc1cc(N)n(CC(=O)N(C)[C@@H](C)c2ccon2)n1	-6	1.27
CCC(=O)Nc1ccc(C)cc1-c1nc2ccccc2n(CC(=O)Nc2ccc(NC(C)=O)cc2)c1=O	8	-1.62
OC1=Nc2c(ncn2-c2cccc(C(F)(F)F)c2)[C@@H](c2cccnc2)C1	12	-1.53
O=C(NC1CC1)[C@@H]1CCCN1S(=O)(=O)c1ccc(F)c(Cl)c1	-3	0.37
CN1CCC[C@H](NC(=O)Nc2nnc(CCC(=O)c3ccccc3)s2)C1	2	-0.32
C[C@@](CO)(NC(=O)Nc1cc(-c2ccco2)ccc1F)C1CC1	28	-4.09
Cn1nccc1-c1csc(CN2C(=O)CCC2=O)n1	-10	1.11
COc1ccc2c(c1NC(=O)N1CCCC1C1CCCO1)CCC2 (stereo not drawn)	7	-1.03
COc1cccc(-c2ccnc3c(C(=O)NCc4ccncc4)cnn23)c1	-9	1.31
O=C(NC[C@H]1COc2ccccc2O1)c1cccc(CN2CCS(=O)(=O)CC2)c1	-2	0.26
CC(=O)N1CCCN(C(=O)Cc2c(C)noc2C)CC1	5	-0.84
CC(C)(C)OC(=O)NC[C@@H]1CCCN(CCO)[C@@H]1C(F)(F)F	-14	1.35
C[C@H]1CN(Cc2ccc(C#N)cc2)CCN1CC(=O)Nc1cc(Cl)ccc1-n1cncn1	0	0.02
COc1ccc(N2CCN(C(=O)NCCn3cncn3)[C@@H](C)C2=O)cc1	0	0.06
COc1cnc(C(=O)N2CCC(c3ccccc3)CC2)cc1O	-6	0.9
Cc1ccc(-c2n[nH]c(NC(=O)CCc3ncccn3)c2C)o1	3	-0.53
CC1=C(C#Cc2ccccc2)c2ccccc2O[C@]1(NCc1ccccc1)c1ccccc1	-17	1.83
C[C@H](N(C)C(=O)c1ccsc1)C(C)(C)C	-10	1.09
O=C(COc1ccc2c(c1)OCO2)Nc1ccccn1	-5	1.03
COC(=O)NC[C@@H]1C[C@H](F)CN1C(=O)c1scc2c1CCCC2	-14	1.8
FC(F)(F)c1ccc(CN(CCN2CCCC2)C2CCOCC2)cc1	1	-0.2
